# Data published in PMC12040169 (PLOS Biology, 2025).
# The other results are listed elsewhere or left out.
# Tested on: T1, C. trachomatis L2/434/Bu expressing GFP (CTL2-GFP)
# T1 construct: L2/434/Bu GFP intracellular growth in HeLa cells
# Parameters: species or system HeLa; C. trachomatis total inclusion area by high-content imaging, normalised to DMSO
# Conditions: total inclusion area; 28.5 h, 10 µM; inhibitor
# Summary of the method: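 Imaging read-out: GFP inclusions and Hoechst nuclei captured by high-content imaging after fixation. Inclusion area/number = chlamydial growth; nuclei count = host cell viability. MIC calculated per earlier method.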
row,Compound,% of control remaining
1,Cc1ccc(C(=O)N2CCn3c2nc2ccccc23)cc1 [CBK288204],131.931
2,COc1ccc(C2=NNC(c3ccc(C(=O)O)cc3)C2)cc1 (stereo not drawn) [CBK287167],115.486
3,CC(C)c1ccc(/C=C/C(=O)N2CCN(C3CCN(C)CC3)CC2)cc1 [CBK149094],80.0974
4,Nc1ncc(CCCN2CCOCC2)c(N)n1 [CBK025981],68.9026
5,O=c1n(CC2CCCCC2)c2ccccc2n1S(=O)(=O)CCc1cccc2ccccc12 [CBK106525],88.1594
6,CN(C)CCNC(=O)c1cccc(-c2cnc3[nH]c(=O)n(Cc4ccc(S(C)(=O)=O)cc4)c3n2)c1 [CBK065069],125.385
7,COC(=O)c1c(NC(=S)NCCn2cc(Br)cn2)sc2c1CCC(C)C2 (stereo not drawn) [CBK266886],113.25
8,COc1ccc(NC(=O)C2CCCN2c2nc(O)cc(C(F)(F)F)n2)cc1 (stereo not drawn) [CBK003704],91.7351
9,Cc1ccc(C(=O)NNC(=O)c2ccc([N+](=O)[O-])cc2)cc1 [CBK261793],84.6889
10,O=S(=O)(NCCSc1nnnn1-c1ccccc1)c1cccs1 [CBK268013],80.1274
11,C[C@@H]1CN(C(=O)OCc2ncc(F)cc2F)C[C@H](C)O1 [CBK200286],53.4727
12,CCN(CC(=O)N1CCN(c2cc(Cl)ccc2C)CC1)S(=O)(=O)c1ccc2ccccc2c1 [CBK268827],116.414
13,Cc1noc(C)c1S(=O)(=O)Nc1ccc2cc(Br)cnc2n1 [CBK073893],90.5911
14,Cc1cccc(OCC(=O)Nc2ncn(Cc3cccnc3)n2)c1 [CBK304919],96.7182
15,COCCCn1c(=O)[nH]c2ncc(-c3cc(C(C)C)ccc3OC)nc21 [CBK064351],105.826
16,COc1cc(C)c(S(=O)(=O)Nc2ccc(CC(=O)O)cc2)cc1C [CBK299782],91.7223
17,O=C(O)c1cc(S(=O)(=O)NCc2ccco2)ccc1Cl [CBK058905],42.6664
18,CC(=O)Nc1ccc(NC(=O)CC2SCCNC2=O)cc1 (stereo not drawn) [CBK269921],94.2839
19,O=C(NCCN1CCC(O)(c2cccc(F)c2)CC1)c1cccs1 [CBK282450],73.2385
20,CC(=O)Nc1nc(C)c(S(=O)(=O)Nc2nc(C(C)C)ns2)s1 [CBK051227],111.173
21,COc1cc2c(cc1CN1CCOCC1CC(=O)O)CCC2 (stereo not drawn) [CBK307277],39.6933

row,Compound,% of control remaining
1,COc1cc(C2C3=C(COC3=O)Nc3[nH]nc(C)c32)ccc1O (stereo not drawn) [CBK288146],93.4697
2,O=C(O)C1(Cc2ccc(-c3ccccc3)cc2)CCNC1 (stereo not drawn) [CBK281687],85.2748
3,O=C(CC1SC(N2CCOCC2)=NC1=O)Nc1cccc(C(=O)O)c1 (stereo not drawn) [CBK300498],88.637
4,CCC(NC(=O)CCN1Cc2ccccc2C1=O)c1ccc(F)cc1 (stereo not drawn) [CBK282657],90.0825
5,Cc1ccc(NC(=O)CC(C(=O)O)N(C)C)cc1 (stereo not drawn) [CBK267068],112.18
6,Cc1nc(C)c(CC(=O)N(C)CC2OCCc3ccccc32)s1 (stereo not drawn) [CBK281478],90.4526
7,O=C(CSc1nnnn1CC1CCCO1)N1CC=C(c2ccccc2)CC1 (stereo not drawn) [CBK295160],97.3077
8,O=C(Cn1cnc2ccccc2c1=O)NCCc1ccsc1 [CBK287844],69.5272
9,COc1ccc(CCNC(=O)c2cnc(-c3ccc(Cl)cc3)c(-c3cccc(CNC(C)=O)c3)c2)cc1OC [CBK164413],81.3271
10,c1ccc(-c2c(-c3ccccc3)n(Cc3ccco3)c3ncn4nc(-c5cccnc5)nc4c23)cc1 [CBK265374],101.357
11,Cc1c(C(=O)O)ccc2c1N[C@@H](c1ccc(OCC#N)cc1)C1CC=CC21 (stereo partly drawn) [CBK287124],84.2159
12,O=C(O)C1CCCN1S(=O)(=O)c1ccc(Cl)cc1 (stereo not drawn) [CBK261249],112.475
13,CCOc1ccc2nc(NC(=N)N)nc(C)c2c1 [CBK010384C],1.198
14,Cc1sc2nc(Cc3ccccc3)n(C3CCN(C(=O)c4ccco4)CC3)c(=O)c2c1C [CBK286317],89.685
15,Cc1nn(C(C)CC(=O)Nc2ccnn2C(C)C)c(C)c1Cl (stereo not drawn) [CBK281537],72.8333
16,c1ccc(COc2nccnc2-c2cccs2)nc1 [CBK107055],95.7125
17,NNC(=O)Cn1c(-c2ccccn2)nc2ccccc21 [CBK263489],105.646
18,CC(=O)NC(CC(=O)NCc1cccnc1-n1cncn1)c1ccc(Cl)cc1 (stereo not drawn) [CBK298314],121.965
19,O=C(Nc1cccnc1N1CCNCC1)c1ccoc1 [CBK029417T],107.195
20,COC(=O)Cc1nc(NS(=O)(=O)c2ccc(Oc3cccc(Cl)c3C#N)cc2)sc1C [CBK000744],101.578
21,O=C(O)CCCn1c(=O)c2cc3c(=O)n(CCCC(=O)O)c(=O)c3cc2c1=O [CBK265748],111.978

row,Compound,% of control remaining
1,CCCCOc1cccc(C(=O)Nc2ccc(-c3nc4ccccc4o3)c(O)c2)c1 [CBK263435],103.031
2,OC(CNc1nccnc1-c1ccccc1Cl)COc1ccccc1 (stereo not drawn) [CBK037085],104.586
3,O=C(Nc1nccc(N2CCNCC2)n1)c1cccs1 [CBK004305T],97.1816
4,O=S(=O)(Cc1ccc(-c2nc(-c3ccncc3)no2)o1)c1ccccc1 [CBK288579],82.4218
5,CCc1c(C)nc2c(C(=O)NCCCN3CCCC3=O)cnn2c1C [CBK162128],79.1086
6,N#Cc1cccc(C(=O)NCCc2nnc3n2CCCCC3)c1 [CBK259813],36.7616
7,CCCCN(C=O)c1c(CC)nc2c(OCc3ccccc3C)cccn12 [CBK147639],91.3249
8,Nc1ncnc(Nc2ccc(F)cc2Cl)c1[N+](=O)[O-] [CBK267255],106.53
9,NS(=O)(=O)c1cccc(NC(=O)c2cccs2)c1 [CBK024419],81.951
10,O=C(O)COc1ccc(S(=O)(=O)Nc2ccc(F)cc2)cc1 [CBK268442],96.8045
11,CC(=O)c1ccc(-c2cnc(N)c(NC3CCCCC3)n2)s1 [CBK063596],88.6656
12,COc1ccc(-c2cc(C(=O)NCc3ccc(F)cc3)cnc2-c2cccc(C)c2)cc1 [CBK036702],122.129
13,COc1cccc(CN2CCC(c3ncc(C(=O)Nc4ccc(F)cc4)c(C)n3)CC2)c1 [CBK285630],81.4186
14,Cc1nc2cc(OCc3nc(C(=O)NCC(O)CO)co3)ccc2s1 (stereo not drawn) [CBK307067],68.3876
15,Cc1cc(-c2cccs2)c(C#N)c(SCc2cccnc2)n1 [CBK270172],103.902
16,COC(=O)c1cc(NC(=O)CC2Sc3ccccc3NC2=O)cc(C(=O)OC)c1 (stereo not drawn) [CBK266260],108.888
17,CN(CCc1ccccc1)Cc1nc2ccccc2c(=O)[nH]1 [CBK283204],100.19
18,COc1cncc(-c2cc(Nc3ccc(OC)c(OC)c3)ncn2)c1 [CBK090824],65.7039
19,OC(CNCCc1c[nH]c2ccccc12)COc1cccc2c1CCCC2 (stereo not drawn) [CBK003831],67.3895
20,COc1cc(CNC2CCCCCC2)c([N+](=O)[O-])cc1OC [CBK262194],126.009
21,O=C(O)c1cccnc1SC1CC(=O)N(c2ccc(F)cc2)C1=O (stereo not drawn) [CBK265582],101.887

row,Compound,% of control remaining
1,Cc1ccc(-c2nccnc2OCc2ccc3c(c2)OCO3)c(C)c1 [CBK106982],85.7866
2,CC1C(=O)N2CCCc3cc(S(=O)(=O)NCc4ccc5c(c4)OCO5)cc1c32 (stereo not drawn) [CBK294419],125.325
3,NS(=O)(=O)c1ccc(Nc2ncccc2[N+](=O)[O-])cc1 [CBK261724],81.0839
4,CC(C)(O)C#Cc1ccc(C(=O)N2CCCC2C(=O)O)s1 (stereo not drawn) [CBK286869],71.587
5,Cc1noc(C)c1CN1CCC(Cc2ccccc2)CC1 [CBK305752],63.0423
6,CCOC(=O)c1[nH]c2ccccc2c1NC(=O)c1ccc(Cl)c(C)c1 [CBK160146],104.438
7,CCOc1ccccc1C(=O)Nc1cnc(-c2cccc(OC(F)(F)F)c2)c(-c2cccnc2)n1 [CBK036952],81.559
8,O=C(NCC(c1ccccc1)N1CCOCC1)c1cnc(-c2ccc(F)cc2)c(-c2ccco2)c1 (stereo not drawn) [CBK037531],129.129
9,COc1ccc(N2CCN(CC(=O)Nc3ccc(Cl)cc3C(=O)c3ccccc3)CC2)cc1 [CBK265743],82.1248
10,CC(C)(CN)CN(Cc1ccc(Cl)cc1Cl)C(=O)NCCc1c[nH]c2ccccc12 [CBK000460C],54.9762
11,CC(=O)N1c2ccc(C(O)CN3CCCC(C)C3)cc2CC1C (stereo not drawn) [CBK282922],100.497
12,CC(=O)NC1CCN(c2nc(N(C)C)nc3c2CCN(C(C)=O)C3)CC1 [CBK307079],75.507
13,Cc1ccccc1-n1ncc2c(=O)n(Cc3ccccc3)cnc21 [CBK287690],80.4963
14,O=C1CCCN1CCCNC(=O)N1CCN(CCc2ccccc2)CC1 [CBK158932],107.615
15,CC(CN(C)C(=O)Cn1cccc(C(=O)Nc2ccc(F)cc2)c1=O)c1ccccc1 (stereo not drawn) [CBK286065],84.2632
16,COc1ccc(C(F)(F)F)cc1N [CBK038366],60.543
17,CC1Cc2ccccc2N1C(=O)Cn1c(CCCO)nc2ccccc21 (stereo not drawn) [CBK297548],104.196
18,COc1cc(-c2cn3ccnc3c(N[C@H](CO)C(C)C)n2)cc(OC)c1OC [CBK066220],106.011
